{"source": "paper PMC4336329", "about": "(PLoS ONE, 2015)", "note": "The campaign covered roughly 310,000 compounds. About 14,000 (4.5%) showed an effect of 50% or more. The effect is printed as a negative number. The list shows a part of the results.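 Note: peak tail current of the secondary pulse compared with the same well before compound.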", "data": [{"biological_target": "human ether-à-go-go-related gene (hERG) potassium channel (human, UniProt Q12809)", "sequence (Q12809 whole entry, looked up)": "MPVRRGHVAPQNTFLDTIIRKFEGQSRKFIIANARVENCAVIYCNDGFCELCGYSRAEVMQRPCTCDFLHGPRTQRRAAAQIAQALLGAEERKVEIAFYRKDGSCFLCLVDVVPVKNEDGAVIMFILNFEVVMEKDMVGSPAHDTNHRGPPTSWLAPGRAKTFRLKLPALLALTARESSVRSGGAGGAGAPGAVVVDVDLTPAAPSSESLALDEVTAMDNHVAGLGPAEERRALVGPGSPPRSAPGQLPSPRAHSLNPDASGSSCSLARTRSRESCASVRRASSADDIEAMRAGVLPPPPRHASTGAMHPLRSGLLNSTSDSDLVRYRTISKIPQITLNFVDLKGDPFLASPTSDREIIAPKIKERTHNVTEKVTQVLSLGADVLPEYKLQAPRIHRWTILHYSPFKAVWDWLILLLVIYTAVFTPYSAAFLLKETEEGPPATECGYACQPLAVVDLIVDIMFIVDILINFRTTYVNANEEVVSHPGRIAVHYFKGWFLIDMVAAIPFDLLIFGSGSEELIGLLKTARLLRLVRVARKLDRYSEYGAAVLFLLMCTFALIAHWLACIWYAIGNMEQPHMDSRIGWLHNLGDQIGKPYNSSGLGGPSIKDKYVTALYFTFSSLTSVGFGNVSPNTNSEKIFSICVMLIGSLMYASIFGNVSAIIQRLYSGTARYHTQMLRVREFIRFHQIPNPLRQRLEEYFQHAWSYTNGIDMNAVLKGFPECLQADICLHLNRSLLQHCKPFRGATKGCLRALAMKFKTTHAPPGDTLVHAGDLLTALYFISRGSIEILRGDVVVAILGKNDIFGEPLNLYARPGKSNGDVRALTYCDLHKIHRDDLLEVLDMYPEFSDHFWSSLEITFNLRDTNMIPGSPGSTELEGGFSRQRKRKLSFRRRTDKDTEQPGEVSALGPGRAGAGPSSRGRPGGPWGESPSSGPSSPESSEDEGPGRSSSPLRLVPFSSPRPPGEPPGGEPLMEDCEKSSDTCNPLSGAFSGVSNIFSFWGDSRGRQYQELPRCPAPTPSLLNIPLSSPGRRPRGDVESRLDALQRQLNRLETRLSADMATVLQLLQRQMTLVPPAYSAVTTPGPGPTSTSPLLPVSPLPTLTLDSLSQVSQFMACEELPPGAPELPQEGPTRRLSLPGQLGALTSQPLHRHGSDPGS", "test": "primary screen, population patch clamp on CHO cells stably expressing hERG", "units": {"hERG current change (%, negative = inhibition) at 10uM": "%"}, "values": [{"compound": "COc1ccccc1NC(=O)CSc1nnc2ccc(-c3ccccn3)nn12", "hERG current change (%, negative = inhibition) at 10uM": -29.1}, {"compound": "Cc1ccc(CN2CCSc3ccc(C(=O)N4CCC5(CC4)OCCO5)cc32)cc1", "hERG current change (%, negative = inhibition) at 10uM": -49.1}, {"compound": "CC(C)C(=O)NC(=S)N1CCc2ccccc21", "hERG current change (%, negative = inhibition) at 10uM": 16.6}, {"compound": "O=C(c1cc(-c2cccc(Cl)c2)nc2ccccc12)N1CCN(c2ccccn2)CC1", "hERG current change (%, negative = inhibition) at 10uM": 4.63}, {"compound": "CC(Sc1n[nH]c(N)n1)C(=O)NC1CCCCC1C", "note": "(stereo not shown)", "hERG current change (%, negative = inhibition) at 10uM": 4.4}, {"compound": "CN1CCN(S(=O)(=O)c2cnccc2N2CCN(c3cccc(Cl)c3)CC2)CC1", "hERG current change (%, negative = inhibition) at 10uM": -9}, {"compound": "CC(C)c1nc2c(s1)CCc1onc(-c3ccc(Cl)cc3)c1-2", "hERG current change (%, negative = inhibition) at 10uM": 14.4}, {"compound": "COc1ccc(N2CCN(C(c3cccs3)C(C)NS(C)(=O)=O)CC2)cc1", "note": "(stereo not shown)", "hERG current change (%, negative = inhibition) at 10uM": 7.84}, {"compound": "Cc1cc(C)nc(/N=C(\\N)N2CCCCC2)n1", "hERG current change (%, negative = inhibition) at 10uM": -1.13}, {"compound": "CCOc1ccccc1CNCC1CCCO1.Cl", "note": "(stereo not shown)", "hERG current change (%, negative = inhibition) at 10uM": 11.5}, {"compound": "CCCCCc1nnc(NC(=O)c2ccc3nc[nH]c3c2)s1", "hERG current change (%, negative = inhibition) at 10uM": -8.22}, {"compound": "O=Cc1sc([O-])nc1-[n+]1ccc2ccccc2c1", "hERG current change (%, negative = inhibition) at 10uM": 7.51}, {"compound": "CCOC(=O)N1CCN(S(=O)(=O)N2CCCC(C(=O)NCCc3ccc(C)cc3)C2)CC1", "note": "(stereo not shown)", "hERG current change (%, negative = inhibition) at 10uM": -5.45}, {"compound": "Cc1ccc(NC(=O)C(NC2CCCc3ccccc32)c2ccccc2)c([N+](=O)[O-])c1.O=C(O)C(=O)O", "note": "(stereo not shown)", "hERG current change (%, negative = inhibition) at 10uM": -1.43}, {"compound": "O=C(OCC(=O)N1CCN(c2ccccc2)CC1)c1ccccc1[N+](=O)[O-]", "hERG current change (%, negative = inhibition) at 10uM": -28.8}, {"compound": "O=C(Cc1ccccc1)NNC(=O)Nc1cccc(Cl)c1", "hERG current change (%, negative = inhibition) at 10uM": 7.04}, {"compound": "N/C(=N\\OC(=O)COc1ccccc1Cl)c1ccc(Cl)cc1", "hERG current change (%, negative = inhibition) at 10uM": 19.7}, {"compound": "CC1Oc2cc3oc4c(O)c(O)ccc4c(=O)c3c(O)c2C1(C)C", "note": "(stereo not shown)", "hERG current change (%, negative = inhibition) at 10uM": 16.2}, {"compound": "Cn1c(=O)cc(SCC(=O)N2CCN(Cc3ccc4c(c3)OCO4)CC2)c2ccccc21", "hERG current change (%, negative = inhibition) at 10uM": -15.5}, {"compound": "Cc1c2ccccc2nc2c(F)c(N(C)C)c(F)c(F)c12", "hERG current change (%, negative = inhibition) at 10uM": 21.1}, {"compound": "Cc1cc(C)n(CCNC(=O)c2ccc3c(c2)OCO3)n1", "hERG current change (%, negative = inhibition) at 10uM": 12.1}, {"compound": "COc1ccc(Cl)cc1-n1c(C)cc(C(=O)O)c1C", "hERG current change (%, negative = inhibition) at 10uM": 11.1}, {"compound": "CCn1c(SCC(=O)Nc2ccc(OC)cc2)nnc1-c1ccco1", "hERG current change (%, negative = inhibition) at 10uM": -22.3}, {"compound": "COc1ccc(CCNCc2cc3ccc(C)cc3[nH]c2=O)cc1OC", "hERG current change (%, negative = inhibition) at 10uM": -73.6}, {"compound": "Cn1c(Cc2ccccc2)nnc1SCC(=O)N1CCOCC1", "hERG current change (%, negative = inhibition) at 10uM": -1.67}, {"compound": "COc1ccc(OCC(=O)Nc2cc(OC)ccc2N2CCCCC2)cc1", "hERG current change (%, negative = inhibition) at 10uM": 12.7}, {"compound": "C=C1c2ccccc2NC(=S)N1Cc1ccc2c(c1)OCO2", "hERG current change (%, negative = inhibition) at 10uM": 27.5}, {"compound": "Cc1c(N2CCCC2)cc2c(c1N)C(C)(C)CC2(C)C", "hERG current change (%, negative = inhibition) at 10uM": -5.14}, {"compound": "COc1ccc(OC)c(Nc2nc(-c3ccc(O)c(O)c3)cs2)c1", "hERG current change (%, negative = inhibition) at 10uM": 10.8}, {"compound": "CCN(CC)S(=O)(=O)c1ccc(S(=O)(=O)N2CCC(N3CCCCC3)CC2)cc1", "hERG current change (%, negative = inhibition) at 10uM": -28.3}, {"compound": "CCC(C)NC(=O)C1c2ccccc2C(=O)N1Cc1ccc(OC)cc1OC", "note": "(stereo not shown)", "hERG current change (%, negative = inhibition) at 10uM": 12.2}, {"compound": "CCCN1CCN(C(=O)Cn2ncc3ccccc32)CC1", "hERG current change (%, negative = inhibition) at 10uM": 12.2}, {"compound": "CC(O)CSc1nc2c(c(=O)[nH]c(=O)n2C)n1CC(O)COc1ccccc1", "note": "(stereo not shown)", "hERG current change (%, negative = inhibition) at 10uM": 17}, {"compound": "COCCOC(=O)c1[nH]c2c(c1C)C(=O)CC(c1ccccc1)C2", "note": "(stereo not shown)", "hERG current change (%, negative = inhibition) at 10uM": 3.61}, {"compound": "Cn1c(SCC(=O)NCC2CCCO2)nc2scc(-c3ccccc3)c2c1=O", "note": "(stereo not shown)", "hERG current change (%, negative = inhibition) at 10uM": -9.19}, {"compound": "Cn1c2c(c(=O)n(C)c1=O)C(NC(=O)C(C)(C)C)(C(F)(F)F)C(=O)N2", "note": "(stereo not shown)", "hERG current change (%, negative = inhibition) at 10uM": 5.09}, {"compound": "CCOC(=O)Nc1ccc2c(c1)N(C(=O)CN(CC)CC)c1ccccc1CC2.Cl", "hERG current change (%, negative = inhibition) at 10uM": -1.1}, {"compound": "CCCCN(CC)CCNC(=O)c1cn(-c2ccc(Cl)cc2)c(=O)c2ccccc12", "hERG current change (%, negative = inhibition) at 10uM": -77.7}, {"compound": "Cc1ccc(Cc2cc(C)n[nH]c2=O)cc1", "hERG current change (%, negative = inhibition) at 10uM": 29.9}, {"compound": "COc1ccc(NC(=S)Nc2ccc(OC)cc2OC)c(OC)c1", "hERG current change (%, negative = inhibition) at 10uM": 19.5}, {"compound": "O=C(CSc1oc(-c2cccs2)nc1S(=O)(=O)c1ccccc1)NC1CCCCC1", "hERG current change (%, negative = inhibition) at 10uM": 17.7}, {"compound": "Cc1ccc(S/C=C\\C(=O)c2ccccc2)cc1", "hERG current change (%, negative = inhibition) at 10uM": -2.59}, {"compound": "CCOc1ncccc1C(=O)NNC(=O)c1cccc(S(=O)(=O)Nc2ccccc2OC)c1", "hERG current change (%, negative = inhibition) at 10uM": -7.21}]}]}
